± gives the standard deviation of the averaged measurements. The full ranking holds about 33,000 sequences; the median of “E-score (dimensionless, -0.5 to 0.5)” is about -0.049, and the highest 2% start at about 0.37. The list shows a part of the results.

For this assay, the system named is T1, PmTbr T-box DNA-binding domain (GST fusion).
T1 sequence: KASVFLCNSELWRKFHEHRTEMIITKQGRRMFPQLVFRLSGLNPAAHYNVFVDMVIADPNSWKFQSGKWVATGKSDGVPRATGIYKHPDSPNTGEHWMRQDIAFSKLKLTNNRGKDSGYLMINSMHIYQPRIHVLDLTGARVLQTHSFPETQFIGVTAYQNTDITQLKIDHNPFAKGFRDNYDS
As to the kind of experiment: PBM E-score of 8-mer (E-score (dimensionless, -0.5 to 0.5)); Tbr is Tbrain of the sea star Patiria miniata (Pm) or the sea urchin Strongylocentrotus purpuratus (Sp); higher = stronger binding preference; most listed sequences are background and not binding sites. The settings on record: the construct has about 5 more residues each side. In outline:
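Expression of GST-fused Tbr T-box DNA-binding domains, each holding the full T-box plus roughly five flanking residues, was carried out in BL21 E. coli at 20 °C, with purification by glutathione affinity chromatography. Universal Agilent arrays made double-stranded by primer extension were incubated with the protein at 200 nM in PBS (pH 7.5), then scanned and quantified. All ungapped 8-mers were scored from probe intensities, and each received an enrichment E-score from the Universal PBM Analysis Suite, averaged over duplicate arrays.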
With ATGTATCG, the “PBM E-score of 8-mer” value stood at 0.0604 ± 0.019.
In the case of ATCAGGTG it was 0.404 ± 0.0092; in that of ACCGGGGA, -0.3169 ± 0.002; in that of ACGTTTGG, -0.0442 ± 0.0078.
For the sequence ACACTGCA, the “PBM E-score of 8-mer” value was found to be 0.213 ± 0.042.
In the case of TGAGATCA it was 0.177 ± 0.01.
In the case of AGCCAACC it was -0.132 ± 0.061.
In the case of AAGACGAC it was 0.0321 ± 0.0016.
Regarding CTTCTTCC, the “PBM E-score of 8-mer” value was -0.0666 ± 0.097.
For AGAAAGGA, the “PBM E-score of 8-mer” value was -0.138 ± 0.076.
To ATTTAACA belongs 0.248 ± 0.0093.
On to ACCAGAAC, for which the “PBM E-score of 8-mer” value is -0.135 ± 0.037.
As to AATCAAAT, the “PBM E-score of 8-mer” value was -0.264 ± 0.038.
As for ATACTCAT, the “PBM E-score of 8-mer” value is -0.16 ± 0.018.
In the case of CGCGTCAG it was 0.303 ± 0.026; in that of GAGAGGAA, -0.0473 ± 0.031.
For CGGAAAAA, the “PBM E-score of 8-mer” value is -0.0583 ± 0.12.
Turning to AACTGTGG, the “PBM E-score of 8-mer” value was 0.00267 ± 0.0079.
To CCAATTCC belongs 0.0614 ± 0.019.
As to ATTATCGC, the “PBM E-score of 8-mer” value came to 0.3071 ± 0.0026.
In the case of AGGCAGGC it was -0.112 ± 0.0018; in that of ATGGACAA, 0.133 ± 0.022.
With AGGGTATG, the “PBM E-score of 8-mer” value is -0.218 ± 0.032.
To CATTTTGG belongs -0.253 ± 0.0098.
As to GATACACA, the “PBM E-score of 8-mer” value was -0.0097 ± 0.0035.
In the case of CTAAATCA it was -0.0232 ± 0.021.
To AGAAATAG belongs -0.103 ± 0.051.
In the case of GTACCCGA it was -0.181 ± 0.1; in that of CTCTCCGA, -0.0521 ± 0.045.
For ACACTGCT, the “PBM E-score of 8-mer” value stood at 0.132 ± 0.015.
In the case of ACTGAGAG it was -0.222 ± 0.014; in that of AGCGATTG, -0.0321 ± 0.0042; in that of TGCCAGAA, -0.00762 ± 0.043.
For the sequence GAGAAGAA, the “PBM E-score of 8-mer” value was -0.0456 ± 0.024.
In the case of TACTTGCA it was 0.0126 ± 0.026; in that of ACGGTACG, -0.235 ± 0.024; in that of ACTTCTAA, 3e-05 ± 0.12.
To GCCCGTCC belongs -0.19 ± 0.012; to GTGGCATA, -0.00798 ± 0.078.
For the sequence CCTACATA, the “PBM E-score of 8-mer” value is -0.165 ± 0.054.
In the case of GGGTCTGA it was -0.157 ± 0.028; in that of AGTCGAAA, -0.142 ± 0.01; in that of AGGTTCTG, -0.132 ± 0.017.
To TAGTTTCA belongs -0.162 ± 0.037; to GTAAATAA, -0.0684 ± 0.071.
To GACAGTCA belongs 0.117 ± 0.0081; to AGTAGCTC, -0.307 ± 0.052; to ATATGCCG, -0.235 ± 0.058.
CACCTCGG: the “PBM E-score of 8-mer” value turned out to be 0.426 ± 0.015.
To TACATGAA belongs -0.1 ± 0.051.
Regarding GGAACTCC, the “PBM E-score of 8-mer” value was -0.22 ± 0.083.
For ACTGGACT, the “PBM E-score of 8-mer” value was -0.131 ± 0.1.
In the case of GACATAAA it was 0.154 ± 0.081.
As to GTCCTGTA, the “PBM E-score of 8-mer” value is -0.131 ± 0.013.
In the case of GTATCCTA it was -0.155 ± 0.036.
On to AGGACATA, for which the “PBM E-score of 8-mer” value was -0.211 ± 0.024.
As for CACAGACG, the “PBM E-score of 8-mer” value amounted to 0.109 ± 0.025.
In the case of CCGGGTGA it was 0.0636 ± 0.031; in that of CTCGGCAG, -0.0463 ± 0.094.
In the case of AAGTGCGT, the “PBM E-score of 8-mer” value was found to be 0.149 ± 0.039.
To GCATAAAA belongs -0.184 ± 0.045; to AAGCACCT, 0.208 ± 0.024; to ATATTGGC, 0.1323 ± 0.00022.
In the case of CACCTGCG it was 0.429 ± 0.019; in that of CGTCCCGC, 0.0447 ± 0.092; in that of AACGTTCG, 0.0624 ± 0.041.
On to ACTCGTGA, for which the “PBM E-score of 8-mer” value turned out to be 0.28 ± 0.0032.
As for AAGCTTTG, the “PBM E-score of 8-mer” value is -0.132 ± 0.024.
On to AAGATAGC, for which the “PBM E-score of 8-mer” value was -0.0909 ± 0.033.
With ATGTGAGC, the “PBM E-score of 8-mer” value is 0.0849 ± 0.0062.
To TCAGGTCA belongs -0.147 ± 0.017; to ACCGTCCC, -0.208 ± 0.0082; to CTTCTAGA, -0.0731 ± 0.034.
In the case of GAAAGAGA it was -0.0649 ± 0.017.
In the case of AACTTCCG it was -0.141 ± 0.013; in that of ATCCGCTG, -0.106 ± 0.055; in that of ATGCAGTA, -0.1591 ± 0.00047.
As to ACTTTAAT, the “PBM E-score of 8-mer” value was -0.0795 ± 0.12.
As for ACGGAGCG, the “PBM E-score of 8-mer” value is -0.0664 ± 0.049.
AACAGAAT: the “PBM E-score of 8-mer” value is -0.0053 ± 0.032.
In the case of GTATTCAA it was -0.311 ± 0.0036; in that of CTGGTATA, -0.317 ± 0.054; in that of TATTGCGA, 0.126 ± 0.058.
To ACCGAGTA belongs -0.0655 ± 0.11; to TCCCGCCA, 0.0126 ± 0.064; to GGCTTATA, -0.322 ± 0.057.
